Structures can show the parent of a compound that is named as a salt.
Target: T1, recombinant AXL with the NTD of the spike protein (Homo sapiens, UniProt P30530)
T1 sequence (P30530 26-451 limits assumed): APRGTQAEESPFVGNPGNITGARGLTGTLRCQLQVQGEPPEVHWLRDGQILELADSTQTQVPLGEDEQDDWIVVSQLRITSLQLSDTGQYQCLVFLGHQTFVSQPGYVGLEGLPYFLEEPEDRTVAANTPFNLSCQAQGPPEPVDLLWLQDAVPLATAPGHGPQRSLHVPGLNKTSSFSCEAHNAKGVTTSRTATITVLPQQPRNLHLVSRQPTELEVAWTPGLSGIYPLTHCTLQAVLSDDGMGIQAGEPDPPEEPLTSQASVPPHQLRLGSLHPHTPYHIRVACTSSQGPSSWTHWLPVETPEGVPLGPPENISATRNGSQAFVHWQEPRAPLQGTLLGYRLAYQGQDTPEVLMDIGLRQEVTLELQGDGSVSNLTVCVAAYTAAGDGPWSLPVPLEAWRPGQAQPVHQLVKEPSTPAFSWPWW
Assay type: binding
Conditions: micromolar range

SMILES | effect on interaction of recombinant AXL with the NTD of the spike protein
Nc1c(Br)cc(Br)cc1CN[C@H]1CC[C@H](O)CC1 [AMB, 4-[(2-amino-3,5-dibromophenyl)methylamino]cyclohexan-1-ol; hydrochloride] | inhibit
CN(Cc1cc(Br)cc(Br)c1N)C1CCCCC1 [BHH, Bromhexine hydrochloride] | inhibit
